{"source": "paper PMC12136788", "binders": {"B1": {"name": "chr9:128108756:128108857:+|3pUTR|ENSG00000148339|msi1|total|mutant (ssRNA)", "RNA": "GGGAGUUCUACAGUCCGACGAUCAAGGCAGCAGCCCUGGCUCCUUUCCUUUGGCAGGUUGGGGAAGGGCUUGCCCCCAGCCUCCGGAUUUCAGGGUUUGACUGGGGGCGUGGAGAGAGAGGGAGGAACCUCAAUAACCUUGAACAACAGAGGAUUGAGCAUCA"}, "B2": {"name": "chr6:43012266:43012370:-|3pUTR|ENSG00000124733|unk|total|mutant (ssRNA)", "RNA": "GGGAGUUCUACAGUCCGACGAUCGAGACCCACUUUAUUCAGUUCUGUACAUAUGGGGACAUCGGUCCAAGCCCAACCCACCUCCGCAUGUAUCACUCUGUGGAGAAUAAAGCACCCUAUGUACACAGCCAAAAGCCGCACUGCCAACAGAGGAUUGAGCAUCA"}, "B3": {"name": "chr3:105576037:105576138:+|3pUTR|ENSG00000170017|msi1|FALSE|unique (ssRNA)", "RNA": "GGGAGUUCUACAGUCCGACGAUCCUCCGUUUAAUAAAAGCUUCCGUAGUGCAUUGGUAUGGAUUAAAUGCAUAAAAUAUUCUUAGACUCGAUGCUGUAUAAAAUAUUAUGGGAAAAAAAGAAAAUACGUUAUUUUGCCUCUAACAACAGAGGAUUGAGCAUCA"}, "B4": {"name": "chr10:69104613:69104714:+|3pUTR|ENSG00000122862|unk|total|mutant (ssRNA)", "RNA": "GGGAGUUCUACAGUCCGACGAUCACAUAUUUUACAGGGUGGAGUGUACUAUAUACUAUUACCUUUGAAUGUGUUUGCAGAGCCCGUGGAUGUGUUUGUCUACAAGUAUGAUUGCUGUUACAUAACACCCCAAAUUAACUCCCACAACAGAGGAUUGAGCAUCA"}, "B5": {"name": "chr10:72011604:72011705:+|3pUTR|ENSG00000122863|msi1|total|mutant (ssRNA)", "RNA": "GGGAGUUCUACAGUCCGACGAUCCACCUGCCCGGAGACAGAGGGAGCAGCUGAGGCCUCUCUCCACUGGCCGCCAGCCUCCCCCGCACAAGGGGACCAUUCAGCAAUGAGUGUUUACUCAUGUUCUUUCUUGUUGAUGAGUUCCAACAGAGGAUUGAGCAUCA"}, "B6": {"name": "chr13:35475095:35475222:-|CDS|ENSG00000180660|unk|total|mutant (ssRNA)", "RNA": "GGGAGUUCUACAGUCCGACGAUCGCUGCAACUUAUCUCCUGCCUGCAGUGCCGGCGGUGUCCCCACUACUUUCUACCGAACUCCGAUCUGUUUCAAGGCAAACCUCACUCAGCUCUGGAAAACGCUGCCAAACAAACGUGGCGCAACAGAGGAUUGAGCAUCA"}, "B7": {"name": "ENSG00000198589:be:win_251|CDS|ENSG00000198589|bound_else_gene|NA|bound_elsewhere_windowed (ssRNA)", "RNA": "GGGAGUUCUACAGUCCGACGAUCUCAUUAUCCAAGAAGGUGAGAGUAUUAACUGCAUGGUGGACCUACUGGAAAAAUGUGACAUUACGUGCCAAGCAGAAGUCUGGAGCAUGUUUACAGCCAUUCUGAAGAAAAGCAUACGGACAACAGAGGAUUGAGCAUCA"}, "B8": {"name": "ENSG00000198589:be:win_6951|CDS|ENSG00000198589|bound_else_gene|NA|bound_elsewhere_windowed (ssRNA)", "RNA": "GGGAGUUCUACAGUCCGACGAUCGCAAGGAGGCAAAUUUGAUCAUGCAGAUCGAACUUUUUCAUCAAUUUCCAGAGCUUGGCGAAACAGUCAGCGUGAUACCUCUGAUAUUAAGGAGUUGAUCCCUGAAUUUUAUUAUCUCCCCAACAGAGGAUUGAGCAUCA"}, "B9": {"name": "ENSG00000107863:be:win_2501|CDS|ENSG00000107863|bound_else_gene|NA|bound_elsewhere_windowed (ssRNA)", "RNA": "GGGAGUUCUACAGUCCGACGAUCAGGUCCCCUCCAUAGCAACAGUUCCUCCUUGCCUCACAACUUCAGCUCCAUUAAUUCGCCGUCAGCUCUCACAUGACCACGAAUCUGUUGGCCCUCCUAGCCUGGAUGCUCAGCCCAACUCAACAGAGGAUUGAGCAUCA"}, "B10": {"name": "chr3:41225420:41225524:+|CDS|ENSG00000168036|unk|total|mutant (ssRNA)", "RNA": "GGGAGUUCUACAGUCCGACGAUCCAUGCGUUCUCCUCAGAUGGUGUCUGCUAUUGUACGUACCAUGCAGAAUACAAAUGAUGCCGAAACAGCUCGUUGUACCGCUGGGACCUUGCAUAACCUUUCCCAUCAUCGUGAGGGCUUCAACAGAGGAUUGAGCAUCA"}, "B11": {"name": "ENSG00000127954:stop:overlap|stop_codon|ENSG00000127954|stop_codon|NA|stop_codon (ssRNA)", "RNA": "GGGAGUUCUACAGUCCGACGAUCCAUGUGUAGACAACACCCUUACAAGGAUCCGCCAGGGCUGGGAAAGGAACUCAAAACACUAGAAAAAGCAUUGAAUGGAAAAUCAAUAUUUAAAACAAAGUUCAAUUUAGCUGGAUUUCUCAACAGAGGAUUGAGCAUCA"}, "B12": {"name": "ENSG00000119285:stop:overlap|stop_codon|ENSG00000119285|stop_codon|NA|stop_codon (ssRNA)", "RNA": "GGGAGUUCUACAGUCCGACGAUCUGUCGCCUUACUUCCUGCUUAAGCCAGCACAGAAGUGUCUGGAGUGGUUGAUUCACAGGUAGCUAAUAGAAUUACAGAAAUAACUAUGGGUUAAUCACUUUGGUCUUGUAAAAAAUUAAGCAACAGAGGAUUGAGCAUCA"}, "B13": {"name": "chr1:67413009:67413110:-|3pUTR|ENSG00000142864|unk|total|mutant (ssRNA)", "RNA": "GGGAGUUCUACAGUCCGACGAUCCUGAAUUUUAUCUGUUUUAAAAAUGAACUUCUCCCGCUACACAGAAGUAACAAAUAUGGCCGUCAGUUUUGUAUUCCGAAAUGUAUUGGCCGCAGGGAUGUUUUCAUAAUUUUCAGAGAUCAACAGAGGAUUGAGCAUCA"}, "B14": {"name": "chr1:119913532:119913650:-|3pUTR|ENSG00000134250|msi1|FALSE|bound_elsewhere (ssRNA)", "RNA": "GGGAGUUCUACAGUCCGACGAUCUCAUGCUCUUGGCAAUUUCUUUGACUUUCUUUUAAGGGCAGAAGCAUUUUAGUUAAUUGUAGAUAAAGAAUAGUUUUCUUCCUCUUCUCCUUGGGCCAGUUAAUAAUUGGUCCAUGGCUACAACAGAGGAUUGAGCAUCA"}, "B15": {"name": "chr9:19286831:19286940:+|CDS|ENSG00000137145|unk|FALSE|unique (ssRNA)", "RNA": "GGGAGUUCUACAGUCCGACGAUCAUUCCAGGAUGUGAAGUGAUCCUAGCCACACCCUAUGGUCGCUGUGCCAAUGUCAACAAUAGUUCAACUACUUCACAAAGAAUCUUUAUCACUUAUCGAAGGGCUCCUCCAGUUCGACCCCAACAGAGGAUUGAGCAUCA"}, "B16": {"name": "chr17:49055506:49055607:+|3pUTR|ENSG00000159217|unk|FALSE|unique (ssRNA)", "RNA": "GGGAGUUCUACAGUCCGACGAUCCACUUCCCGGCUGUGGGGGCUGGGGAGCCACUUGUAACAUUUCUGUGCAGAUUUUAUGUUAGCCACUGCUAUGUAAAAGCACGUUCAAAAUGAAUUUCAGCAGAUUAUGUGUUACCAUAACAACAGAGGAUUGAGCAUCA"}, "B17": {"name": "chr14:81473690:81473791:-|3pUTR|ENSG00000071537|msi1|total|mutant (ssRNA)", "RNA": "GGGAGUUCUACAGUCCGACGAUCCAGUGUUUUGGAAGUAUGCAUGCAGGCCUAUAAAUGAAAAACACAAUUCUUUAUGUGUACCGCAUGUGUAUUAAUGUCUAACUACAUACGCAAAAACUUCCUUUACAGAGGUUCGGACUACAACAGAGGAUUGAGCAUCA"}, "B18": {"name": "chr4:113336597:113336699:+|CDS|ENSG00000145362|unk|FALSE|bound_elsewhere (ssRNA)", "RNA": "GGGAGUUCUACAGUCCGACGAUCACCUAUGCACAGUGAGCUGGUUAAGAAGAUCCUAGGCAACAAAGCUACCUUCAGCCCUAUAGUCACUUUGGAACCUAGAAGAAGAAAAUUCCACAAACCAAUUACCAUGACCAUUCCUGUCAACAGAGGAUUGAGCAUCA"}, "B19": {"name": "ENSG00000137168:stop:overlap|stop_codon|ENSG00000137168|stop_codon|NA|stop_codon (ssRNA)", "RNA": "GGGAGUUCUACAGUCCGACGAUCCAAACUCCCAGGACCGCCCUGUGGACGACGUGAAGAUCAUUAAGGCAUACCCUUCUGGGUAGACUUGCUACCCUCUUGAGCAGCUCUUCUGAGAUGGCCCCAGUGAACCAGCUUCUAGAUCAACAGAGGAUUGAGCAUCA"}, "B20": {"name": "chr6:21598408:21598509:+|3pUTR|ENSG00000124766|msi1|total|mutant (ssRNA)", "RNA": "GGGAGUUCUACAGUCCGACGAUCCGUUAAGGGUUUUUGUUUUUAAACUUUUUUUUGCCAUCCAUCCUGUGCAAUAUGCCGUGCCGAAUAUUUGUCUUAAAAUUCAAGGCCACAAAAACAAUGUUUGGGGGAAAAAAAAGAAAACAACAGAGGAUUGAGCAUCA"}, "B21": {"name": "chr4:138167974:138168075:-|3pUTR|ENSG00000151012|msi1|total|mutant (ssRNA)", "RNA": "GGGAGUUCUACAGUCCGACGAUCCACAAAAUCUGCAUUGUCCAUGUGAGUAAAGUAAAAUAAUUCCUGUUAUUUUUUUCUGUCCGAAAUAAGUAUGGAGGAUAUGUUUUUAAAAAUUUAUGAGUUAAUUGAAAUAUCCAUAUACAACAGAGGAUUGAGCAUCA"}, "B22": {"name": "chr2:189754195:189754303:-|CDS|ENSG00000128694|unk|FALSE|unique (ssRNA)", "RNA": "GGGAGUUCUACAGUCCGACGAUCCCAGAGUGCUCCACCAUGAGUGGUGGGAAAGCCAUAGAACAUUUGGCCAAACAAGGAAAUAGAUUUCAUUUUGACAUCAAACCUCCCUUGCAUCAUGCUAAAAAUUGUGAUUUUUCUUUUCAACAGAGGAUUGAGCAUCA"}}, "note": "Some of the results follow.", "data": [{"molecular_target": "MSI1 full-length (mouse, UniProt Q61474 1-362)", "sequence (Q61474 whole entry)": "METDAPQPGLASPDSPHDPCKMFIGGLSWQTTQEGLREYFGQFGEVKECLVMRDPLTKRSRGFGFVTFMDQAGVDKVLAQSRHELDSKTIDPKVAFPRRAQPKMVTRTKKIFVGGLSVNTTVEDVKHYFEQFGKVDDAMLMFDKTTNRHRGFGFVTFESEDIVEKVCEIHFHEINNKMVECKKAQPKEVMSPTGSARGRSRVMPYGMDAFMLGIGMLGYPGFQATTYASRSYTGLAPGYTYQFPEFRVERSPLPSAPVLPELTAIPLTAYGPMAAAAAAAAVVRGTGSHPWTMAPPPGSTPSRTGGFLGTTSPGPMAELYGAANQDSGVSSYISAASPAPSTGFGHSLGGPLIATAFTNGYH", "assay": "nsRBNS (natural sequence RNA bind-n-seq); RBNS binding buffer (assumed for nsRBNS): 25 mM Tris pH 7.5, 150 mM KCl, 3 mM MgCl2, 0.01% Triton X-100, 500 ug/ml BSA, 20 U/ml SUPERase-In, 4 C; UNK is unkempt and MSI1 is Musashi-1; names of the RNAs are library labels; protein concentration not given here; high values mean tight binding", "units": {"binding signal": "enrichment R"}, "values": [{"binder": "B1", "binding signal": 0.404}, {"binder": "B2", "binding signal": 0.482}, {"binder": "B3", "binding signal": 3.88}, {"binder": "B4", "binding signal": 0.281}, {"binder": "B5", "binding signal": 0.395}, {"binder": "B6", "binding signal": 0.502}, {"binder": "B7", "binding signal": 0.303}, {"binder": "B8", "binding signal": 0.275}, {"binder": "B9", "binding signal": 1.07}, {"binder": "B10", "binding signal": 0.362}, {"binder": "B11", "binding signal": 1.89}, {"binder": "B12", "binding signal": 0.307}, {"binder": "B13", "binding signal": 0.413}, {"binder": "B14", "binding signal": 5.19}, {"binder": "B15", "binding signal": 0.747}, {"binder": "B16", "binding signal": 0.398}, {"binder": "B17", "binding signal": 0.436}, {"binder": "B18", "binding signal": 1.42}, {"binder": "B19", "binding signal": 0.384}, {"binder": "B20", "binding signal": 0.293}, {"binder": "B21", "binding signal": 0.651}, {"binder": "B22", "binding signal": 0.306}]}]}
